Reference: the supplement of paper PMC7826260
The other results are listed elsewhere or left out. Viral Rep nickase domains cut single-stranded DNA in vitro for 1 h at 37 °C with 3 µM enzyme; only the middle of the 90-letter strands is printed. Numbers give uncut DNA relative to the enzyme-free pool, as log2; uncut sequences lie near 0, cut ones below; no hit call is given. Reads are scaled to the total, so uncut sequences can rise above 0 when many others are cut.

These sequences were tested on T1, Rep nickase domain of maize striate mosaic virus (assay: uncleaved DNA left, log2 of reads against the no-enzyme library (log2 ratio); higher = less cleavage (more negative = more Rep cleavage of the k-mer); sequences stand for … in CTCGTCCG…ACCGGAGA).
T1 sequence (residues 1-117, tag not shown): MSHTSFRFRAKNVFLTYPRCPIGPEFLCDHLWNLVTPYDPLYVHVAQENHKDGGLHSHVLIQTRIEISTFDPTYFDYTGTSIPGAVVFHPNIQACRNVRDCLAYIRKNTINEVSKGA
Method: (§1)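 A pool of 90-nt single-stranded DNAs with seven random bases just before the constant AC of the nick site (name = the seven bases) was cut by 3 µM recombinant His6-SUMO-tagged Rep nickase domain (300 nM DNA, 50 mM HEPES pH 8.0, 50 mM NaCl, 1 mM MnCl2, 1 h, 37 °C, three replicates). Uncut DNA was amplified and sequenced.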

Row | Sequence | uncleaved DNA left (log2)
1 | AATCTGC | -0.913
2 | GTACGTT | 1.53
3 | GTCAAAG | 1.31
4 | GAATTGA | -0.809
5 | AGGTCCT | 0.893
6 | CTGCTAG | -1.06
7 | GAGAGGA | 0.792
8 | GGTTCTT | 1.88
9 | GCTAGCG | 0.167
10 | TGACCAA | 0.348
11 | GACAGTA | 1.07
12 | CTCAGTG | -1.33
13 | TCGCCCG | -0.844
14 | GTACGCT | 0.804
15 | TATCCGT | -0.996
16 | CCTCCTA | -0.449
17 | CACCGGC | -0.749
18 | GAGCCCA | 0.813
19 | TTTAGCA | -0.973
20 | CTGAACC | 0.41

Row | Sequence | uncleaved DNA left (log2)
21 | TCTCACC | -0.334
22 | GCACCTT | 0.407
23 | GTCACAC | 1.58
24 | TTCACCA | 0.162
25 | AGCTCCG | -1.08
26 | AGCGTTC | 0.242
27 | ACCAGTG | -0.698
28 | TAAGGTC | 1.2
29 | TCCACTT | -0.234
30 | ATCTGGT | 0.388
31 | AACGAGA | 1.01
32 | TGTGTGC | -0.743
33 | CTTATAA | -0.51
34 | GGATGCC | 0.787
35 | AGGAAGA | -0.0343
36 | TGCATAT | -0.618
37 | CGCTTTA | -0.497
38 | CCTCAGA | -0.17
39 | CTACTGA | 1.16
40 | CAGGATT | 1.63

The sequences below were run on T2, Rep nickase domain of porcine circovirus 2 in the same assay as above.
T2 sequence (residues 2-116, tag not shown): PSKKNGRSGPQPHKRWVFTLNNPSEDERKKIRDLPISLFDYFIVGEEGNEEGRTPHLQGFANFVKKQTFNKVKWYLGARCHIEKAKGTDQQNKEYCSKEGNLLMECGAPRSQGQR
Method: as §1

Row | Sequence | uncleaved DNA left (log2)
41 | AATCTGC | 0.109
42 | GTACGTT | -0.0275
43 | GTCAAAG | 0.198
44 | GAATTGA | -0.069
45 | AGGTCCT | -1.71
46 | CTGCTAG | 0.188
47 | GAGAGGA | 0.0111
48 | GGTTCTT | -1.28
49 | GCTAGCG | 0.0704
50 | TGACCAA | -0.207
51 | GACAGTA | -0.00995
52 | CTCAGTG | 0.225
53 | TCGCCCG | -0.245
54 | GTACGCT | -0.00253
55 | TATCCGT | 0.13
56 | CCTCCTA | -0.273
57 | CACCGGC | 0.0662
58 | GAGCCCA | -0.483
59 | TTTAGCA | -0.257
60 | CTGAACC | 0.00304

Row | Sequence | uncleaved DNA left (log2)
61 | TCTCACC | -0.975
62 | GCACCTT | -0.205
63 | GTCACAC | 0.112
64 | TTCACCA | -0.349
65 | AGCTCCG | -0.0144
66 | AGCGTTC | -0.179
67 | ACCAGTG | 0.144
68 | TAAGGTC | -0.244
69 | TCCACTT | -0.245
70 | ATCTGGT | -1.39
71 | AACGAGA | 0.0279
72 | TGTGTGC | 0.0831
73 | CTTATAA | 0.113
74 | GGATGCC | 0.0446
75 | AGGAAGA | 0.113
76 | TGCATAT | -0.204
77 | CGCTTTA | -0.317
78 | CCTCAGA | 0.0768
79 | CTACTGA | 0.0902
80 | CAGGATT | -0.404

Each sequence was assayed on T3, Rep nickase domain of tomato yellow leaf curl virus in the same assay as above.
T3 sequence (residues 1-136, tag not shown): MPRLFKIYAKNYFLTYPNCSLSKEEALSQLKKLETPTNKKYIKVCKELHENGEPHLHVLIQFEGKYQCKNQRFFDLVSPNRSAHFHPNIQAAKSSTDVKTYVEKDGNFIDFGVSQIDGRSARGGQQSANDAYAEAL
Method: as §1

Row | Sequence | uncleaved DNA left (log2)
81 | AATCTGC | 0.0578
82 | GTACGTT | -0.121
83 | GTCAAAG | 0.109
84 | GAATTGA | -0.0717
85 | AGGTCCT | 0.0891
86 | CTGCTAG | 0.198
87 | GAGAGGA | 0.0718
88 | GGTTCTT | 0.153
89 | GCTAGCG | 0.0373
90 | TGACCAA | 0.0583
91 | GACAGTA | -0.0258
92 | CTCAGTG | 0.202
93 | TCGCCCG | -0.0912
94 | GTACGCT | -0.13
95 | TATCCGT | 0.054
96 | CCTCCTA | -0.139
97 | CACCGGC | -0.123
98 | GAGCCCA | -0.0211
99 | TTTAGCA | -0.106
100 | CTGAACC | 0.0408

Row | Sequence | uncleaved DNA left (log2)
101 | TCTCACC | -0.178
102 | GCACCTT | 0.193
103 | GTCACAC | 0.137
104 | TTCACCA | 0.0112
105 | AGCTCCG | -0.198
106 | AGCGTTC | -0.025
107 | ACCAGTG | 0.0852
108 | TAAGGTC | -0.0402
109 | TCCACTT | -0.0221
110 | ATCTGGT | -0.0695
111 | AACGAGA | -0.0858
112 | TGTGTGC | -0.0296
113 | CTTATAA | 0.19
114 | GGATGCC | -0.106
115 | AGGAAGA | 0.0124
116 | TGCATAT | -0.153
117 | CGCTTTA | 0.0323
118 | CCTCAGA | -0.103
119 | CTACTGA | 0.0854
120 | CAGGATT | -0.13
